These results are taken from PMC5663917.

The chains behind the UniProt entries cited, without tags or fusion partners. Residues count along the entry.
UniProt Q9NT62: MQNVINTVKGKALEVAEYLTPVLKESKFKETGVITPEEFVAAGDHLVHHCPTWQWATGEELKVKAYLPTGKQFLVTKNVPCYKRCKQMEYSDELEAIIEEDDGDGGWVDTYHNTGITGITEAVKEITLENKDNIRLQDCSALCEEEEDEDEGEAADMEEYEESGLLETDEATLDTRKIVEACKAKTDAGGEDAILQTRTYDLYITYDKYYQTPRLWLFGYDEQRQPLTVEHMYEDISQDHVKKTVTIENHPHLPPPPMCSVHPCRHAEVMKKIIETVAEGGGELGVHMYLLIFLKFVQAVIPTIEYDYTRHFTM
UniProt Q14457: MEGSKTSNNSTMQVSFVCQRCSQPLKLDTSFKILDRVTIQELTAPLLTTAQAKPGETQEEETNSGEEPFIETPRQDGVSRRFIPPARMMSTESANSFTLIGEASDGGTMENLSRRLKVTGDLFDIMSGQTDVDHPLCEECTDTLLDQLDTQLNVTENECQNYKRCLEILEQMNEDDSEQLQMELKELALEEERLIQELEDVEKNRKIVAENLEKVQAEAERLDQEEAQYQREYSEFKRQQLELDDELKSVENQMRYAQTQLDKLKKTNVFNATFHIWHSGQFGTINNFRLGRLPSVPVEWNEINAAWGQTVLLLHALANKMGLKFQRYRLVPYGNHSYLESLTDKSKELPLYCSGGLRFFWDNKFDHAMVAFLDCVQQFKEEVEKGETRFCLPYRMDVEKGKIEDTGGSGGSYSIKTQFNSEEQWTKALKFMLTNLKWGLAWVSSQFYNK
UniProt P28068, residues 19-263: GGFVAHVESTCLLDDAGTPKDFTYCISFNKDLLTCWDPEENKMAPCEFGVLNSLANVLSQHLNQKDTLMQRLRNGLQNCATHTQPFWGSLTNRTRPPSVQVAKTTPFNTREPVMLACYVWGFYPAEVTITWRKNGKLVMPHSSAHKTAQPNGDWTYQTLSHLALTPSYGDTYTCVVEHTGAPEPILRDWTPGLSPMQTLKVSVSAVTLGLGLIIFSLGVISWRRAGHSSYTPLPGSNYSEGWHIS

Test [1] addresses T1, endogenous ATG7 (human (endogenous in MT2 and PMA-THP1)) (UniProt O95352).
T1 sequence: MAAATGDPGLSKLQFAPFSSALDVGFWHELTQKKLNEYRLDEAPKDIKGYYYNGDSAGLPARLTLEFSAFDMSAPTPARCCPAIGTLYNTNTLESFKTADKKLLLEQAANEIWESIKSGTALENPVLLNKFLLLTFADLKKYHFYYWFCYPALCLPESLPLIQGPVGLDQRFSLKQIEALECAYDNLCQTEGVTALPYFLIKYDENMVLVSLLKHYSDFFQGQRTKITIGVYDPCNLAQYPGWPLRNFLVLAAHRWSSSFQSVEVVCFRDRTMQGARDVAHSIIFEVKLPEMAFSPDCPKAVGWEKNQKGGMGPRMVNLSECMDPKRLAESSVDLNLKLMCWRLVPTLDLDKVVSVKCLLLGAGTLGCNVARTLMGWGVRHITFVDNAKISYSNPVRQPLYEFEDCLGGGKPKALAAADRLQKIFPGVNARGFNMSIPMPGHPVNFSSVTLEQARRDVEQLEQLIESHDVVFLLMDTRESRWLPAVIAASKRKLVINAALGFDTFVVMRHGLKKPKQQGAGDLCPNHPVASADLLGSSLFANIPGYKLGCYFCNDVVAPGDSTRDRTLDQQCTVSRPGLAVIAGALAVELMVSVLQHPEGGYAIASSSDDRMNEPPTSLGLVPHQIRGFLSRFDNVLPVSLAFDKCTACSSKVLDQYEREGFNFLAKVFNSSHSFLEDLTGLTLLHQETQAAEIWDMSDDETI
As to the kind of experiment: co-IP; endogenous proteins, MT2 cell lysate; IP anti-ATG7, blot anti-DMB (Fig. 6C); for Sirt1 cells transfected with control siRNA or DMB siRNA (Supplementary Fig. S4C, IP antibody not shown).

Test [2] deals with T1, endogenous ATG7 (human (endogenous in MT2 and PMA-THP1)). As to the kind of experiment: co-IP; endogenous proteins, lysate of PMA-THP1 cells co-cultured with MT2 cells for 24 h; IP anti-ATG7, blot anti-DMB (Fig. 6D); for Sirt1 cells transfected with control siRNA or DMB siRNA (Supplementary Fig. S4D, IP antibody not shown).
The target of test [3] is T2, HA-tagged ATG7 (human) (UniProt O95352).
T2 sequence: T1 sequence
The test is described as follows: co-IP; coimmunoprecipitation of DMA or DMB with ATG7 (Supplementary Fig. S3C); cells, tags and IP antibody not shown.

The next test has as its target HA-tagged ATG3 (human) (UniProt Q9NT62). The test is described as follows: co-IP; HEK293T co-transfected with pcDNA3.1-DMB and HA-tagged ATG proteins; IP anti-HA, blot anti-DMB (Fig. 6A); for HA-ATG7 also IP anti-DMB, blot anti-HA (Fig. 6B); lysis buffer 1.0% Nonidet P40, 20 mM Tris-HCl pH 8.0, 10% glycerol, 150 mM NaCl; 4 °C.
Test [4] addresses T2, HA-tagged ATG7 (human). The description is as above.
For test [5], the target named is HA-tagged Beclin1 (human) (UniProt Q14457). The description is as above.

Results are given in words; binding and its absence hold for the method and conditions named. In cells and extracts the contact can be indirect. Some entries that bind do so weakly or less than the wild type. For part of these data: Sequences can lack the tags named with a protein.

Consider “endogenous HLA-DMB (from UniProt P28068 19-263)”, for which the binding entry in test [1] and in test [2] was “binds” each time.

Consider “HLA-DMB expressed from pcDNA3.1-DMB (from UniProt P28068 19-263)”, for which the binding entry is given as “binds” in the test with HA-tagged ATG7 (human) [3], “no binding” in the test with HA-tagged ATG3 (human), “binds” with HA-tagged ATG7 (human) [4] and “no binding” in test [5].
